Reference: publication PMC8976878
No constants are given. Whether binding was seen depends on the method and setting. Binding seen in cells or lysates may run through a third protein. Some entries that bind do so weakly or less than the wild type.

The chains behind the UniProt entries cited, without tags or fusion partners. Where a name states a change or a piece, a line headed by the entry shows the natural chain unless it says otherwise. A line that says so, or that is headed by a name, gives the form on record, which may keep a tag or linker.
UniProt P21333: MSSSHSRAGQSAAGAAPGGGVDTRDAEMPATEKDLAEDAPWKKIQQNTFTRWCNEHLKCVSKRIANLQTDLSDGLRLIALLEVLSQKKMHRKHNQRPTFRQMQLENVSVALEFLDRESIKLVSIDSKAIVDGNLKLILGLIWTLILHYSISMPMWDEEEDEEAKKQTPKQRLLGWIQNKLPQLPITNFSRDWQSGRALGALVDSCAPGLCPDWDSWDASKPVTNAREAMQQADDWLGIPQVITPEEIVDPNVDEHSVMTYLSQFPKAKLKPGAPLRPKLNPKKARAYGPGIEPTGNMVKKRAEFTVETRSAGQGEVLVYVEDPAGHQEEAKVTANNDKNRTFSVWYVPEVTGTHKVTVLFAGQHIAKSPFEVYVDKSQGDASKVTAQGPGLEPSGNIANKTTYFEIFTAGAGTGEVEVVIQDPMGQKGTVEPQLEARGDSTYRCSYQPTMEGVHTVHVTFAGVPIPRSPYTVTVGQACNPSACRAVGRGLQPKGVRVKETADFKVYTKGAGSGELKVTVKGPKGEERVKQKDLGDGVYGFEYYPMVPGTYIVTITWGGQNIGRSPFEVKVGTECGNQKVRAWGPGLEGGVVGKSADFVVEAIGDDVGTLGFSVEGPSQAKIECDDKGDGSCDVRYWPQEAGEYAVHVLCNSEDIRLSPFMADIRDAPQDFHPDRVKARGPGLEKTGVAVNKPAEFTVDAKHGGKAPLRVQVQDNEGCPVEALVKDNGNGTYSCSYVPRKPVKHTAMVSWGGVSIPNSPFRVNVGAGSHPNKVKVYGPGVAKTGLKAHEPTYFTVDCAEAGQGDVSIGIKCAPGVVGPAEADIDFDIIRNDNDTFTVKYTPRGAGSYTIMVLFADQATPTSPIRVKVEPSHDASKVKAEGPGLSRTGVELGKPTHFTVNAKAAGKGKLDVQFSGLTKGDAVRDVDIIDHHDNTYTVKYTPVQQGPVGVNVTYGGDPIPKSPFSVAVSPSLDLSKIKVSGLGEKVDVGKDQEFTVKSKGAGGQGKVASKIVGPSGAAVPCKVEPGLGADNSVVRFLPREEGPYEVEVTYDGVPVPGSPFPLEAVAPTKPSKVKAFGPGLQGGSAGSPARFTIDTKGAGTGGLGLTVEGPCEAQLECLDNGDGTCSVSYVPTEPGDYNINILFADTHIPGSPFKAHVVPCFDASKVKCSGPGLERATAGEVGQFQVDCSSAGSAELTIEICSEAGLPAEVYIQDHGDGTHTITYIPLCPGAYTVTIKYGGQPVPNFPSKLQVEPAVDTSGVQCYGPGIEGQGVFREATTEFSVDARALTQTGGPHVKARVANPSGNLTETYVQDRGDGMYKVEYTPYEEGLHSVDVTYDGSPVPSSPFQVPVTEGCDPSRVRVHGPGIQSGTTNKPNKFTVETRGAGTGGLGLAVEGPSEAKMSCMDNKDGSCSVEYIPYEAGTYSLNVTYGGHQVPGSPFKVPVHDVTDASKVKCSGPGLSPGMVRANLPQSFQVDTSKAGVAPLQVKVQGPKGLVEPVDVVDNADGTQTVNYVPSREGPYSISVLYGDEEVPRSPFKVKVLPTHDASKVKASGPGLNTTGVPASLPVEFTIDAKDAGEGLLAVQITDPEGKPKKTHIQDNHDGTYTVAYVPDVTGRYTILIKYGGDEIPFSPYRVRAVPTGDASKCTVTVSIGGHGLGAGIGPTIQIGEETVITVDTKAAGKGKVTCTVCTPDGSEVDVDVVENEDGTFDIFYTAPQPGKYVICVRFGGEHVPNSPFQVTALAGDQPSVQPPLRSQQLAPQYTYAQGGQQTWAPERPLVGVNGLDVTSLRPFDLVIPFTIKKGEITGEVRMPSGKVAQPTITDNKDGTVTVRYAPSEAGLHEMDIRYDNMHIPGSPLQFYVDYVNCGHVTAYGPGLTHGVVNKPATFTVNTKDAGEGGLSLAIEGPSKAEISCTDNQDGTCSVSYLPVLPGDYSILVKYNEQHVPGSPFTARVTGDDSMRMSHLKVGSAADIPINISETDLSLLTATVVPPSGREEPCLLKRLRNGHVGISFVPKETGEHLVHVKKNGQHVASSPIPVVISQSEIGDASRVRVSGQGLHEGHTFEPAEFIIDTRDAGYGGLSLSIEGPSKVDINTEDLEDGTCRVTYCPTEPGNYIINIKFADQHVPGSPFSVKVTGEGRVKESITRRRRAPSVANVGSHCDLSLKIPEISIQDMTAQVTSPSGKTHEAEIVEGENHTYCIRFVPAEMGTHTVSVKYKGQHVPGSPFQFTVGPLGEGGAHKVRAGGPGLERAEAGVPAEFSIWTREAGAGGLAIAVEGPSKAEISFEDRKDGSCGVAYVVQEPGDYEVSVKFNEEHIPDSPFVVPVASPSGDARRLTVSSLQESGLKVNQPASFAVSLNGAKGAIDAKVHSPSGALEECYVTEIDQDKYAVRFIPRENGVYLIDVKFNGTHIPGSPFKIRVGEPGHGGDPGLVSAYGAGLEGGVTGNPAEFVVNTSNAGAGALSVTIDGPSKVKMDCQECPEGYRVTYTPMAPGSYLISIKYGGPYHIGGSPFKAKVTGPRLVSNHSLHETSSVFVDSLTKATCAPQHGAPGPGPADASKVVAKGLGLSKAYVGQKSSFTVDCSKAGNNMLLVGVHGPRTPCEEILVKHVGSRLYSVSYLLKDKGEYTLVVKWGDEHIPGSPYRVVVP
UniProt P13569: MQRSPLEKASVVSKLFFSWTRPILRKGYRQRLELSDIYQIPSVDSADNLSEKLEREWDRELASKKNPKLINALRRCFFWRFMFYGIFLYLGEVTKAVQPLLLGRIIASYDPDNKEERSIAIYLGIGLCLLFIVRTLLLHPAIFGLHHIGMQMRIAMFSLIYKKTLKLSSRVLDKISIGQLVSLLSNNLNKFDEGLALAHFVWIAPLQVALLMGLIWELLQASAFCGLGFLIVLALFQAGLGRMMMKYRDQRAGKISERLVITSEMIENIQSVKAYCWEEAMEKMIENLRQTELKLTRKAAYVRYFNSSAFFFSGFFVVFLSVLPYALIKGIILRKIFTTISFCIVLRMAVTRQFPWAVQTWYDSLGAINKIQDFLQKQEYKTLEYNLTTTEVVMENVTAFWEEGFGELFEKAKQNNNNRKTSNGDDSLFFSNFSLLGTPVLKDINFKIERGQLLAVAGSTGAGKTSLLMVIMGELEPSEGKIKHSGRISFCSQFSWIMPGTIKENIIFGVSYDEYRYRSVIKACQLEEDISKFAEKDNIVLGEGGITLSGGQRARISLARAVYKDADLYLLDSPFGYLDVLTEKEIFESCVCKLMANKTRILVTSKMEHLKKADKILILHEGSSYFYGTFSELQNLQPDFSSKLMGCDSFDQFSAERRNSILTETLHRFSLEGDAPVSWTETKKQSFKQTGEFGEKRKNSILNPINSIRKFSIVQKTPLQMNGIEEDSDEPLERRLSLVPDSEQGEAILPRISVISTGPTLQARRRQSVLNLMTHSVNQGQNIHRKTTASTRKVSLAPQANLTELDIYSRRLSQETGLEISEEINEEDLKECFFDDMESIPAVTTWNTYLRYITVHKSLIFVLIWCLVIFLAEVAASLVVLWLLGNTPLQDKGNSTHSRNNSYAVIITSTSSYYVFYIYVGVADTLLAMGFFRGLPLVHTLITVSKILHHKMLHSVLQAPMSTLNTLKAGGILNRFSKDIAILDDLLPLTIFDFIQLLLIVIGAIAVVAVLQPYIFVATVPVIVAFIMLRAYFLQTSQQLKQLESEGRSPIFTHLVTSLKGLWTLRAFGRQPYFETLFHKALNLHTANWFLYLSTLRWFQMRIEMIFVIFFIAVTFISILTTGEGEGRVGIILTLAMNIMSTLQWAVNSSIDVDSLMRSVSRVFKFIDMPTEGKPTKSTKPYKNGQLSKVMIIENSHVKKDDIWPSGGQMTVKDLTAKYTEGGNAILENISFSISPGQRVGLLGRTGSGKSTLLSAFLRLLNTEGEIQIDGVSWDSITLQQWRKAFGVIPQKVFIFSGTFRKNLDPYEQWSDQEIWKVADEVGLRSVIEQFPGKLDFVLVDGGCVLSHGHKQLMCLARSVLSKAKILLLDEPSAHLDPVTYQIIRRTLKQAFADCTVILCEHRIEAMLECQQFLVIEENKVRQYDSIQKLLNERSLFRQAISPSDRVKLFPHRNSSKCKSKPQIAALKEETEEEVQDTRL
F508del-CFTR (EGFP–F508del-CFTR) (P13569, form named): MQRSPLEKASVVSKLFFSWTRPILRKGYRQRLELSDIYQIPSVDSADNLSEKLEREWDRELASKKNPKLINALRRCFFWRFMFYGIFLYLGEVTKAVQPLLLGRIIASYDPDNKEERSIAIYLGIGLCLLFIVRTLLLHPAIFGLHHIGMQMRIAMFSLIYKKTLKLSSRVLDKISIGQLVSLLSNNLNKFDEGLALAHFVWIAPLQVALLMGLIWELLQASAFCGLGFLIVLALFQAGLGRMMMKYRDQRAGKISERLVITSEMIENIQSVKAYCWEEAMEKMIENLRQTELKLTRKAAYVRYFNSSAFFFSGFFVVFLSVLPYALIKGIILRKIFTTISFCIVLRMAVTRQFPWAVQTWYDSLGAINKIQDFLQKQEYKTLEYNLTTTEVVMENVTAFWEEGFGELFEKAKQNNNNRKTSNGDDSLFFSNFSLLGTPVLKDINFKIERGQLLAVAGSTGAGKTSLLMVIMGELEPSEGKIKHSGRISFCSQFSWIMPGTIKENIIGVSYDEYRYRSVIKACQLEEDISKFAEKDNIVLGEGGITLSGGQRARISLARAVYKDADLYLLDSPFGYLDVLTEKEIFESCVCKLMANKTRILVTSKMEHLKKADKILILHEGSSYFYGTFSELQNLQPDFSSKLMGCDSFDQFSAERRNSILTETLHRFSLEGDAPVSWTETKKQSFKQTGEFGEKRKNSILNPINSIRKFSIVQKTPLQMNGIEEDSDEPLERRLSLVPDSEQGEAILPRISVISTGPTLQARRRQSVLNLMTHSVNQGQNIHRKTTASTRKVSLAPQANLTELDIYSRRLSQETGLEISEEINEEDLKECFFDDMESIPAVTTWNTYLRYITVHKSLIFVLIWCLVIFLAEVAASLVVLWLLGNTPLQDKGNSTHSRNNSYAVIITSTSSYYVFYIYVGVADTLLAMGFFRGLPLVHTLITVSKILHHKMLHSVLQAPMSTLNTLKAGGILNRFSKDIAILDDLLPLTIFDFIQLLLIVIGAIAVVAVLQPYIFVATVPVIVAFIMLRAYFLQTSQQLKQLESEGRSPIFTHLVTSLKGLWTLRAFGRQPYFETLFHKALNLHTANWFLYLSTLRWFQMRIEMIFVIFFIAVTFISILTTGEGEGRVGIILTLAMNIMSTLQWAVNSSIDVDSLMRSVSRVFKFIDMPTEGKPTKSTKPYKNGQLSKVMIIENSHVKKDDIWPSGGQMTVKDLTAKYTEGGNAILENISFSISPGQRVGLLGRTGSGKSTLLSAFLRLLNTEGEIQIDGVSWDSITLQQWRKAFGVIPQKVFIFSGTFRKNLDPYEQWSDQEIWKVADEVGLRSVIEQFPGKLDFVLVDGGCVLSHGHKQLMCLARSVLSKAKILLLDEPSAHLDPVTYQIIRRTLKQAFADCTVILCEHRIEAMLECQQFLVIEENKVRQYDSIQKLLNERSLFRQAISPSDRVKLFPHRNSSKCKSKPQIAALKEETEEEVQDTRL

What was measured:
[1] = molecular target: Filamin A (human (endogenous in primary HBE cells)) (UniProt P21333); assay: co-IP; as a1, but cells exposed to VX-445 (3 μM) plus VX-661 (3 μM), or kept at low temperature (29°C), for 24 h before lysis; IP with rabbit anti-FLNA antibody, blot with anti-CFTR antibody 596
[2] = molecular target: Filamin A (human (endogenous in primary HBE cells)) (UniProt P21333); assay: condition: only cells without VX-445 plus VX-661 or low temperature; co-IP; lysates of CF HBE cells transduced with CFTR adenoviruses (50 MOI), no corrector treatment; lysis in 150 mM NaCl, 1 mM EDTA, 50 mM Tris-HCl pH 7.4, 0.5% Triton X-100; IP with rabbit anti-FLNA antibody and Protein G Sepharose at 4°C; blot with anti-CFTR antibody 596
[3] = molecular target: Filamin A (human (endogenous in primary HBE cells)) (UniProt P21333); assay: co-IP; lysates of CF HBE cells transduced with CFTR adenoviruses (50 MOI), no corrector treatment; lysis in 150 mM NaCl, 1 mM EDTA, 50 mM Tris-HCl pH 7.4, 0.5% Triton X-100; IP with rabbit anti-FLNA antibody and Protein G Sepharose at 4°C; blot with anti-CFTR antibody 596

binding [1] | binding [2] | binding [3] | Substance
binds | no binding |  | F508del-CFTR (EGFP–F508del-CFTR) (from UniProt P13569 1-1480)
binds | no binding |  | S13F-CFTR (EGFP–S13F-CFTR) (from UniProt P13569 1-1480)
 |  | binds | wild-type cystic fibrosis transmembrane conductance regulator (EGFP–wt-CFTR) (from UniProt P13569 1-1480)
